Test results from the supplement of paper PMC4166925.
± gives the standard deviation of the averaged measurements. In all, about 33,000 sequences were measured (“E-score (dimensionless, -0.5 to 0.5)”: median about -0.049, highest 2% from about 0.37 on). This is one part of the list.

Tested on: T1, PmTbr T-box DNA-binding domain (GST fusion)
T1 sequence: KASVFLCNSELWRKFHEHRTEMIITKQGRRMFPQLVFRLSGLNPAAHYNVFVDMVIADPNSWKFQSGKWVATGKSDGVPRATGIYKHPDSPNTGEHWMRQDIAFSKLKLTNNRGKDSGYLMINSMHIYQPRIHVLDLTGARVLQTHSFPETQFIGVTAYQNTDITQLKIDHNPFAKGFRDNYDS
Experiment: PBM E-score of 8-mer (E-score (dimensionless, -0.5 to 0.5)); Tbr is Tbrain of the sea star Patiria miniata (Pm) or the sea urchin Strongylocentrotus purpuratus (Sp); higher = stronger binding preference; most listed sequences are background and not binding sites
Settings: the construct has about 5 more residues each side
Procedure, shortened: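 Primer extension turned Universal Agilent oligonucleotide arrays double-stranded. They were incubated with 200 nM protein in PBS (pH 7.5); the protein was a GST-fused Tbr T-box DNA-binding domain expressed in BL21 E. coli at 20 °C and purified on glutathione. Every ungapped 8-mer was scored from the scanned, quantified probe intensities, and the Universal PBM Analysis Suite gave each an enrichment E-score averaged over duplicate arrays.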

Sequence	PBM E-score of 8-mer
CCAGTGAA	-0.169 ± 0.068
GACGCCTA	0.288 ± 0.0027
CGATTGTC	0.00791 ± 0.025
CAAAAGCC	-0.0578 ± 0.12
CTGATCGA	-0.113 ± 0.011
AATACAGC	-0.125 ± 0.023
TCCCCAAA	-0.149 ± 0.13
ACTTCATC	-0.0364 ± 0.0059
GAAGGTAC	-0.214 ± 0.046
AGGTCGTG	0.0158 ± 0.083
AGGCCACA	-0.017 ± 0.05
AGGTAATA	-0.281 ± 0.016
GTGGCCCA	-0.205 ± 0.02
ATCCCTCG	0.0153 ± 0.12
GAGGCCAC	-0.11 ± 0.0055
CGTGATAA	0.251 ± 0.034
AGTTCACC	-0.0448 ± 0.0017
GTTTGGTA	0.0874 ± 0.0073
CCTCACAG	0.127 ± 0.049
ATTCTTCG	-0.0422 ± 0.078
AAAGCCTT	-0.0617 ± 0.095
CTGCATAA	-0.11 ± 0.064
CAATGATA	-0.0259 ± 0.03
ATTCGATG	-0.311 ± 0.021
ATCGCTCA	-0.2 ± 0.026

Sequence	PBM E-score of 8-mer
ATTTGAGC	-0.18 ± 0.017
ACAGCCCA	-0.0835 ± 0.0019
CATAGGTA	0.0537 ± 0.043
ATGACATA	-0.139 ± 0.032
CGATGCAA	-0.16 ± 0.013
CCGACCGG	0.00967 ± 0.02
AGTGTGCA	0.253 ± 0.008
CAAGACGA	-0.158 ± 0.014
ACGTTGAT	-0.2 ± 0.013
CTGGCGGC	-0.168 ± 0.018
GTAGCGTA	-0.112 ± 0.06
TCAATGGA	-0.0992 ± 0.0078
ATACTTTG	-0.138 ± 0.041
GGTCGTGA	0.0269 ± 0.06
GAGAACCC	-0.0803 ± 0.011
AGATGCAG	-0.225 ± 0.03
AATTATCT	0.113 ± 0.077
CTCTTATA	-0.107 ± 0.013
CAGTGCAC	-0.00583 ± 0.034
GACCCCAC	-0.0873 ± 0.063
ACCTGACC	0.00515 ± 0.051
AAAAACAC	0.313 ± 0.025
AAATTGTG	0.112 ± 0.013
AAGGCTGA	0.0132 ± 0.06
AAGAACAC	0.0781 ± 0.027

Sequence	PBM E-score of 8-mer
CTGGTTTC	-0.041 ± 0.0045
ACCGAACT	-0.127 ± 0.046
AGCACAAC	0.0533 ± 0.013
CCGCGCAC	0.12 ± 0.024
AATCAAAA	-0.152 ± 0.036
GAGGCAGA	0.00581 ± 0.019
CCCGCCGG	-0.195 ± 0.014
CAATTAAC	0.11 ± 0.054
ACGTAGTC	-0.1965 ± 0.0019
ACGCAGCC	-0.155 ± 0.031
AAATTAGT	-0.152 ± 0.13
AAAAGCCG	-0.00105 ± 0.076
CCAGTGCC	-0.103 ± 0.0034
ATTTTGCA	0.208 ± 0.063
AGCCGTAT	-0.0845 ± 0.061
GACCGGCC	-0.161 ± 0.029
CCTATAAA	-0.29 ± 0.0059
CGGGAAAA	0.102 ± 0.014
GCCGGCGA	0.119 ± 0.0044
GACAACAA	0.194 ± 0.046
AGCGGAAG	-0.0179 ± 0.012
AGAGATAT	0.093 ± 0.016
GAGTGCAC	-0.214 ± 0.037
AATTTTCC	-0.0893 ± 0.04
AGTGAAGA	0.00749 ± 0.058

Sequence	PBM E-score of 8-mer
GGGAGCCC	-0.25 ± 0.0022
AACATTTA	-0.028 ± 0.082
AGCCATGA	-0.156 ± 0.014
CAGATTAG	-0.0836 ± 0.049
CTGTTGTA	0.104 ± 0.017
AAAGAACA	-0.146 ± 0.029
TAACTTCA	0.052 ± 0.02
GATGTCGC	0.187 ± 0.049
GATTGGGA	-0.274 ± 0.015
CTCATACC	-0.00948 ± 0.008
CTGGTGGC	0.0309 ± 0.079
CGCTAGTA	0.13 ± 0.0034
AATCTCAG	0.052 ± 0.04
GCTTCACA	0.301 ± 0.014
ACTTCTTG	0.0919 ± 0.017
GCTCAAAC	-0.146 ± 0.046
GCGAGCAC	0.0386 ± 0.07
ATTATGAA	-0.118 ± 0.062
AGTCGCAT	-0.00609 ± 0.062
CGTTTTCA	0.114 ± 0.026
GTGTTCGA	0.21 ± 0.011
AAACGTCC	-0.00611 ± 0.059
CCGCCCCG	-0.211 ± 0.11
ATAAAATA	-0.067 ± 0.21
AAGTAGAT	-0.101 ± 0.098

Sequence	PBM E-score of 8-mer
ACGATGCG	0.114 ± 0.04
CGCTCACG	0.174 ± 0.044
ACTGCCTG	-0.0798 ± 0.053
ACGTGAAT	-0.0548 ± 0.00093
AACGTACG	0.155 ± 0.01
GCGGCTAC	-0.0566 ± 0.023
CGTCTACC	-0.252 ± 0.01
AGGTGGAC	-0.0616 ± 0.046
GTTCCGCA	-0.0322 ± 0.03
GAACGGTA	-0.211 ± 0.043
AGGGGTTC	-0.0761 ± 0.048
AATTGGCA	0.247 ± 0.036
ATCTTGAC	0.127 ± 0.016
CCAGTACA	-0.108 ± 0.083
CGTGAATC	0.243 ± 0.013
GGTCCAGA	-0.231 ± 0.024
AGGGACGA	0.0466 ± 0.051
CAAGTAGA	-0.12 ± 0.042
CCGGCAAC	0.21 ± 0.0026
TGCATTAA	-0.0738 ± 0.016
TCTTACCA	-0.0462 ± 0.011
CTAGGAAA	-0.219 ± 0.013
GAGCTATC	-0.0841 ± 0.0084
CCTTATGC	-0.139 ± 0.041
ATGACTGG	-0.237 ± 0.071

Sequence	PBM E-score of 8-mer
CCGTCCCG	-0.207 ± 0.027
GCGGCGGA	0.00211 ± 0.073
GAGATGGC	0.0247 ± 0.011
GTCCAGAA	-0.329 ± 0.017
CACAGTTC	0.18 ± 0.01
CACTTTCG	0.258 ± 0.004
CGTCACCC	0.373 ± 0.021
CATAGCGA	-0.0501 ± 0.0092
GTCCCTGA	-0.247 ± 0.0097
AGGTGGGG	0.217 ± 0.009
AAAATGGC	-0.173 ± 0.098
GAACGAAC	-0.0431 ± 0.072
AAAGTCCA	-0.316 ± 0.0051
AATCCCTA	-0.0162 ± 0.033
AGGGCTAG	-0.175 ± 0.04
ACTATCCT	-0.11 ± 0.04
AGCCTGGA	-0.151 ± 0.11
AGGGTCAG	-0.142 ± 0.12
AGACAGAC	-0.243 ± 0.034
CTCAACTA	-0.0737 ± 0.013
GTAGACTA	-0.16 ± 0.024
ATATAGAA	-0.374 ± 0.022
ACTTACCA	0.112 ± 0.0077
CCTTGGGA	-0.179 ± 0.014
TAATAGAA	-0.0744 ± 0.024

Sequence	PBM E-score of 8-mer
AGTCGAGG	0.0125 ± 0.11
ACCCCGAC	-0.00494 ± 0.0064
CGGGCTAA	-0.235 ± 0.017
AGTTGTCA	0.4064 ± 0.0017
TAGACACA	0.111 ± 0.0034
TCTATCCA	-0.354 ± 0.0079
ACTTATCA	0.239 ± 0.046
ATAAGGGG	-0.0488 ± 0.062
TAATGCCA	-0.0579 ± 0.039
GCCTCAAC	-0.158 ± 0.024
GAATCAAA	-0.116 ± 0.044
ATACTTAC	-0.0979 ± 0.024
CGATGCAG	-0.104 ± 0.0024
ACTTCCTG	-0.0233 ± 0.048
AAGAAGAA	-0.132 ± 0.039
GCGATATA	0.141 ± 0.026
ATGTCGCA	0.254 ± 0.049
CGGAACAC	0.0348 ± 0.042
AGTCGTTG	0.0477 ± 0.079
ATACGCGC	0.116 ± 0.03
CAGAGGGA	-0.256 ± 0.08
CCTACCGC	0.0907 ± 0.044
